PubChem BioAssay (NCI)
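Assay format: 96-well plates, 48-hour exposure. GI50 is the concentration that inhibits growth by half.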 Certain results were filed several times, with different values. The list is limited to them. There may be further records. Results that share an entry are repeated measurements (runs, samples, wells, individuals or studies). A tag in brackets gives the origin of a value. Letters hold for one entry only.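 TGI marks complete inhibition of growth.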

How the values were obtained:
Experiment in all cases: NCI tumour cell line growth inhibition, 48 h
[1] = test system: MALME-3M melanoma
[2] = test system: PC-3 prostate
[3] = test system: SK-MEL-2 melanoma
[4] = test system: SNB-19 CNS
[5] = test system: SR leukemia
[6] = test system: TK-10 renal

Structure (SMILES): CCc1nc(C(N)=O)c(Nc2ccc(N3CCC(N4CCN(C)CC4)CC3)c(OC)c2)nc1NC1CCOCC1
- TGI [1]: 25.3 µM [sample A, 1 test] and 699 nM [sample B, 1 test] and 21.9 µM [sample C, 1 test]
- GI50 [2]: 10.2 µM [sample A, 1 test] and 250 nM [sample B, mean of 2 tests] and 8.37 µM [sample C, 1 test]
- GI50 [3]: 8.25 µM [sample A, mean of 2 tests] and 181 nM [sample B, 1 test] and 6.51 µM [sample C, mean of 2 tests]
- TGI [3]: 25.1 µM [sample A, mean of 2 tests] and 426 nM [sample B, 1 test] and 26.6 µM [sample C, mean of 2 tests]
- GI50 [4]: 5.9 µM [sample A, mean of 2 tests] and 310 nM [sample B, 1 test] and 8.37 µM [sample C, mean of 2 tests]
- TGI [5]: 733 nM [sample A, mean of 2 tests] and 44.3 nM [sample B, mean of 2 tests] and 7.75 µM [sample C, 1 test]
- TGI [6]: 15.7 µM [sample A, mean of 2 tests] and 778 nM [sample B, 1 test] and 16 µM [sample C, mean of 2 tests]
